The numbers were not newly measured in article PMC11006913, which cites them from elsewhere.

Holding throughout (conditions): PBM; conditions not shown; double strand, one strand shown; scale: upbm affinity estimate (log intensity, higher = more binding, comparable within an allelic series)
One data set deals with T1, PBX4 (Homo sapiens) (UniProt Q9BYU1).
T1 sequence: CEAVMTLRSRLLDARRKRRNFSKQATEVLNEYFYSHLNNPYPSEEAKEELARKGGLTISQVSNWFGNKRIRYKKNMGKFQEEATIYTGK

In data set [1] the target is T2, PBX4 R215Q (Homo sapiens) (UniProt Q9BYU1).
T2 sequence: T1 sequence with R19Q

The target in data set [2] is PITX2 L100Q (Homo sapiens) (UniProt Q99697).
The target in data set [3] is PITX2 R108H (Homo sapiens) (UniProt Q99697).
In data set [4] the target is PITX2 R130W (Homo sapiens) (UniProt Q99697).

Where a chain is given by its changes, count along the chain named. Some of the results follow.

For CCGTATCG [8-mer CCGTATCG], the binding signal was 10 in the data set with PBX4 (Homo sapiens) and 9.9 in data set [1].
Turning to CATGCCAG [8-mer CATGCCAG], the figures for the binding signal (with PBX4 (Homo sapiens); in data set [1]) were 9.9 and 9.83, respectively.
As to AAAACCGG [8-mer AAAACCGG], the binding signal in the data set with PBX4 (Homo sapiens) was 9.98; in data set [1], 9.84.
In the case of GCACCAAC [8-mer GCACCAAC], the binding signal with PBX4 (Homo sapiens) is 9.89; in data set [1], 9.85.
On to AACCTGGG [8-mer AACCTGGG], for which the figures for the binding signal (with PBX4 (Homo sapiens); in data set [1]) were 9.71 and 9.75, respectively.
Take CCGTCAAA [8-mer CCGTCAAA]: the binding signal with PBX4 (Homo sapiens) is 10.8; in data set [1], 10.1.
Regarding TCGTCAAA [8-mer TCGTCAAA], the binding signal is 11 with PBX4 (Homo sapiens) and 10.3 in data set [1].
Turning to CATCAATC [8-mer CATCAATC], the binding signal with PBX4 (Homo sapiens) was 10.9; in data set [1] it was 10.2.
Regarding GGCCGCAC [8-mer GGCCGCAC], the binding signal with PBX4 (Homo sapiens) was 9.81; in data set [1], 9.79.
As to ACGCTGTC [8-mer ACGCTGTC], the results for the binding signal (in the data set with PBX4 (Homo sapiens); in data set [1]) were 9.94 and 9.88, respectively.
Consider ATGTCAAA [8-mer ATGTCAAA], for which the binding signal with PBX4 (Homo sapiens) was 10.8; in data set [1], 10.1.
As for GATATCGA [8-mer GATATCGA], the binding signal was 9.96 with PBX4 (Homo sapiens) and 9.95 in data set [1].
As for GAGGGACA [8-mer GAGGGACA], the binding signal in the data set with PBX4 (Homo sapiens) is 9.88; in data set [1] it was 9.89.
ACGTCAAT [8-mer ACGTCAAT]: the binding signal in the data set with PBX4 (Homo sapiens) is 10.8; in data set [1], 10.2.
For CCAAGGGA [8-mer CCAAGGGA], the binding signal with PBX4 (Homo sapiens) was 9.81; in data set [1], 9.9.
With ACTCGTCA [8-mer ACTCGTCA], the binding signal in the data set with PBX4 (Homo sapiens) was 11; in data set [1], 10.3.
Regarding GACCTCCC [8-mer GACCTCCC], the binding signal in the data set with PBX4 (Homo sapiens) is 9.64; in data set [1], 9.78.
For the sequence CCGCCCAG [8-mer CCGCCCAG], the binding signal in the data set with PBX4 (Homo sapiens) is 9.69; in data set [1], 9.71.
For the sequence GCACGCAA [8-mer GCACGCAA], the binding signal (with PBX4 (Homo sapiens); in data set [1]) was 9.74 in each case.
Turning to CATCAATA [8-mer CATCAATA], the binding signal in the data set with PBX4 (Homo sapiens) was 10.8; in data set [1], 10.2.
For TCAATCAA [8-mer TCAATCAA], the binding signal in the data set with PBX4 (Homo sapiens) is 11; in data set [1], 10.3.
As to AATATACT [8-mer AATATACT], the binding signal with PBX4 (Homo sapiens) was 10; in data set [1], 9.93.
As to ATACATCA [8-mer ATACATCA], the binding signal is 10.6 with PBX4 (Homo sapiens) and 10.2 in data set [1].
With GACGCGAC [8-mer GACGCGAC], the binding signal is 9.82 with PBX4 (Homo sapiens) and 9.8 in data set [1].
As for AACCTCGG [8-mer AACCTCGG], the binding signal in the data set with PBX4 (Homo sapiens) is 9.88; in data set [1] it was 9.85.
Take GTGATTGA [8-mer GTGATTGA]: the binding signal was 10.7 with PBX4 (Homo sapiens) and 10.2 in data set [1].
As to CCGCGGGA [8-mer CCGCGGGA], the binding signal was 9.79 with PBX4 (Homo sapiens) and 9.74 in data set [1].
In the case of CACGTCCC [8-mer CACGTCCC], the binding signal with PBX4 (Homo sapiens) was 9.9; in data set [1], 9.81.
Regarding GTATCGGA [8-mer GTATCGGA], the binding signal with PBX4 (Homo sapiens) was 10; in data set [1] it was 9.98.
As to ACCAGTTC [8-mer ACCAGTTC], the binding signal is 9.89 in the data set with PBX4 (Homo sapiens) and 9.83 in data set [1].
For the sequence AGTAGTCC [8-mer AGTAGTCC], the binding signal in the data set with PBX4 (Homo sapiens) is 10; in data set [1], 9.9.
Consider CGACTGAA [8-mer CGACTGAA], for which the binding signal with PBX4 (Homo sapiens) was 9.82; in data set [1], 9.77.
In the case of CGTTGCGC [8-mer CGTTGCGC], the binding signal was 9.83 with PBX4 (Homo sapiens) and 9.7 in data set [1].
In the case of CTCATCAA [8-mer CTCATCAA], the figures for the binding signal (in the data set with PBX4 (Homo sapiens); in data set [1]) were 10.8 and 10.2, respectively.
In the case of GGGTGCGA [8-mer GGGTGCGA], the results for the binding signal (in the data set with PBX4 (Homo sapiens); in data set [1]) were 9.75 and 9.83, respectively.
Consider ATTTGACG [8-mer ATTTGACG], for which the figures for the binding signal (with PBX4 (Homo sapiens); in data set [1]) were 10.8 and 10.2, respectively.
For CGTGTCGC [8-mer CGTGTCGC], the values for the binding signal (in the data set with PBX4 (Homo sapiens); in data set [1]) were 9.94 and 9.8, respectively.
Consider ATATGACG [8-mer ATATGACG], for which the binding signal was 10.6 in the data set with PBX4 (Homo sapiens) and 10.1 in data set [1].
For the sequence ACCTCTCG [8-mer ACCTCTCG], the binding signal was 9.76 in the data set with PBX4 (Homo sapiens) and 9.83 in data set [1].
Regarding ACGACCCA [8-mer ACGACCCA], the binding signal was 9.97 with PBX4 (Homo sapiens) and 9.9 in data set [1].
For the sequence GGATGGAC [8-mer GGATGGAC], the binding signal in the data set with PBX4 (Homo sapiens) is 9.98; in data set [1] it was 9.9.
For the sequence ATCGGGCA [8-mer ATCGGGCA], the binding signal with PBX4 (Homo sapiens) was 9.96; in data set [1] it was 9.88.
Turning to ACGTCAAA [8-mer ACGTCAAA], the binding signal in the data set with PBX4 (Homo sapiens) was 10.8; in data set [1], 10.2.
On to ATGGTTCG [8-mer ATGGTTCG], for which the values for the binding signal (in the data set with PBX4 (Homo sapiens); in data set [1]) were 9.95 and 9.94, respectively.
With GCAGCACC [8-mer GCAGCACC], the figures for the binding signal (with PBX4 (Homo sapiens); in data set [1]) were 9.78 and 9.88, respectively.
GCCAAGTA [8-mer GCCAAGTA]: the binding signal was 9.92 with PBX4 (Homo sapiens) and 9.84 in data set [1].
Regarding GCGTCTGA [8-mer GCGTCTGA], the values for the binding signal (with PBX4 (Homo sapiens); in data set [1]) were 9.88 and 9.83, respectively.
Regarding TCTCATCA [8-mer TCTCATCA], the binding signal is 10.7 in the data set with PBX4 (Homo sapiens) and 10.2 in data set [1].
As to ATGTCACA [8-mer ATGTCACA], the results for the binding signal (in the data set with PBX4 (Homo sapiens); in data set [1]) were 10.7 and 10.1, respectively.
AGGCGGGC [8-mer AGGCGGGC]: the figures for the binding signal (with PBX4 (Homo sapiens); in data set [1]) were 9.7 and 9.68, respectively.
On to CGGATACG [8-mer CGGATACG], for which the binding signal (with PBX4 (Homo sapiens); in data set [1]) was 9.92 throughout.
As to GTTGCCAA [8-mer GTTGCCAA], the values for the binding signal (with PBX4 (Homo sapiens); in data set [1]) were 10 and 9.87, respectively.
In the case of CGGCCGAG [8-mer CGGCCGAG], the binding signal was 9.71 with PBX4 (Homo sapiens) and 9.69 in data set [1].
As to ATACCCAG [8-mer ATACCCAG], the binding signal in the data set with PBX4 (Homo sapiens) is 9.93; in data set [1], 9.9.
Turning to GCGGGTTA [8-mer GCGGGTTA], the binding signal with PBX4 (Homo sapiens) was 9.96; in data set [1], 9.88.
In the case of CCGCGATA [8-mer CCGCGATA], the binding signal was 9.94 in the data set with PBX4 (Homo sapiens) and 9.89 in data set [1].
As for CGACTCCC [8-mer CGACTCCC], the figures for the binding signal (with PBX4 (Homo sapiens); in data set [1]) were 9.82 and 9.79, respectively.
Regarding CACGACAC [8-mer CACGACAC], the binding signal in the data set with PBX4 (Homo sapiens) is 9.91; in data set [1], 9.9.
Turning to AAAAATCG [8-mer AAAAATCG], the binding signal in the data set with PBX4 (Homo sapiens) was 9.99; in data set [1], 9.94.
On to AGAGCCAG [8-mer AGAGCCAG], for which the binding signal (with PBX4 (Homo sapiens); in data set [1]) was 9.81 in each case.
In the case of GCTAGCAA [8-mer GCTAGCAA], the binding signal with PBX4 (Homo sapiens) is 9.96; in data set [1], 9.87.
Regarding CTTGATGA [8-mer CTTGATGA], the binding signal is 10.7 with PBX4 (Homo sapiens) and 10.1 in data set [1].
As for CGGCCATC [8-mer CGGCCATC], the results for the binding signal (in the data set with PBX4 (Homo sapiens); in data set [1]) were 9.94 and 9.79, respectively.
On to CCCAGGTA [8-mer CCCAGGTA], for which the binding signal with PBX4 (Homo sapiens) was 9.97; in data set [1] it was 9.95.
For the sequence CCTCTGCA [8-mer CCTCTGCA], the values for the binding signal (with PBX4 (Homo sapiens); in data set [1]) were 9.87 and 9.86, respectively.
In the case of CATACCGG [8-mer CATACCGG], the binding signal in the data set with PBX4 (Homo sapiens) was 10; in data set [1], 9.85.
As to ACTGGCTC [8-mer ACTGGCTC], the binding signal with PBX4 (Homo sapiens) was 9.91; in data set [1], 9.85.
On to AACCATGG [8-mer AACCATGG], for which the binding signal with PBX4 (Homo sapiens) was 9.95; in data set [1], 9.91.
Turning to ATGATGAG [8-mer ATGATGAG], the binding signal in the data set with PBX4 (Homo sapiens) is 10.6; in data set [1] it was 10.1.
For the sequence CACAATAA [8-mer CACAATAA], the binding signal in data set [2] was 9.5; in data set [3] it was 8.83; in data set [4], 8.78.
Take GACTAATC [8-mer GACTAATC]: the binding signal in data set [2] was 10.8.
For GTGCATTA [8-mer GTGCATTA], the binding signal in data set [2] was 9.92; in data set [3], 8.82; in data set [4], 8.67.
CACAGTCG [8-mer CACAGTCG]: the binding signal in the data set with PBX4 (Homo sapiens) is 9.9; in data set [1], 9.87.
